{
  "source": "PubChem BioAssay AID485344",
  "about": "(National Center for Advancing Translational Sciences (NCATS), 2010)",
  "note": "Among all 340,000 compounds or so, about 6,900 (2%) were called active. Rule as the data show it: active = inhibition above about 30%; inactive = below that, where a call was filed. The entries are a selection whose mix differs from that of the whole data set. The source gives no active or inactive call for entries shown without one.",
  "data": [
    {"target": "D(2) dopamine receptor (Homo sapiens) (UniProt P14416)", "sequence (P14416 whole entry, looked up)": "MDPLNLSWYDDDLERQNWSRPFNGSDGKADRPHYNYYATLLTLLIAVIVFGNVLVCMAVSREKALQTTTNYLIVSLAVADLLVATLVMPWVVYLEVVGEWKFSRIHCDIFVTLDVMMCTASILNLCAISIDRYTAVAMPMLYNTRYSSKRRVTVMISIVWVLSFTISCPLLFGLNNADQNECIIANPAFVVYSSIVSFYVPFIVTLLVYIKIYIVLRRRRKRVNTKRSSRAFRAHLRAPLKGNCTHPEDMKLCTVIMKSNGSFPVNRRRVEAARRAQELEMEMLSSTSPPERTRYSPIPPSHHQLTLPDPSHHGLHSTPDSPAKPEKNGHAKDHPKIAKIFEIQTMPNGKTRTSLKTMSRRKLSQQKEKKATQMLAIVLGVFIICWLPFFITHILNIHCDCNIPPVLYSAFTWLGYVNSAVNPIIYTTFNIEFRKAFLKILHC", "assay": "HTS Assay for Allosteric Antagonists of the Human D2 Dopamine Receptor: Primary Screen for Antagonists; also: 0% is about no effect", "conditions": "HEK293 TREx D2 cells, calcium flux, dopamine EC80; at 10 µM; stronger effect = higher value", "procedure,_shortened": "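Calcium flux kinetic readout in an inducible HEK293 TREx D2 line plated overnight at 30 C. After 180 s compound exposure, an EC80 dopamine challenge follows with another 180 s kinetic read to detect antagonism.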", "values": [
      {"smiles": "Cc1c(C(=O)Nc2ccc(F)c(Cl)c2)oc2ccc(S(=O)(=O)N(C)C3CCCCC3)cc12", "inhibition": "-6.84%"},
      {"smiles": "Cc1oc2ccc(O)c(CN3CCCCC3)c2c1C(=O)Nc1cccc(C(F)(F)F)c1", "inhibition": "-1.8%"},
      {"smiles": "CCc1ccc(OCc2nc(-c3ccc(OC)c(OC)c3)no2)c(Br)c1", "inhibition": "-21.1%"},
      {"smiles": "CC1(C(=O)NC2CCCCC2)Cc2ccccc2C(=O)N1Cc1ccccc1Cl", "note": "(configuration not stated)", "inhibition": "5.41%"},
      {"smiles": "COc1cc(NC(=O)CCc2nc3cccnc3n2Cc2cccs2)cc(OC)c1OC", "inhibition": "-5.24%"},
      {"smiles": "O=C(CCc1nc2cccnc2n1-c1ccccc1)Nc1ccc(Cl)c(Cl)c1", "inhibition": "16.1%"},
      {"smiles": "CC(=O)c1ccc(N2C(=O)N(Cc3ccccc3C#N)c3ccccc3S2(=O)=O)cc1", "inhibition": "-26.8%"},
      {"smiles": "CN(C)c1ccc(C2C=C(c3ccccc3)Nc3nnnn32)cc1", "note": "(configuration not stated)", "inhibition": "-1.62%"},
      {"smiles": "Nn1c(SCC(=O)N2CCCCCC2)nnc1-c1ccncc1", "inhibition": "active: 30.1%"},
      {"smiles": "CCOc1ccc(C(=O)NCC(c2ccc3c(c2)OCO3)N2CCOCC2)cc1", "note": "(configuration not stated)", "inhibition": "11.6%"},
      {"smiles": "CCc1ccccc1N(C)C(=O)c1cn(-c2cccc(OC)c2)c(=O)c2ccccc12", "inhibition": "1.36%"},
      {"smiles": "Cc1cccc(CS(=O)(=O)Cc2ccc(C(=O)NCc3cccnc3)o2)c1", "inhibition": "active: 33.4%"},
      {"smiles": "Cc1nc2n(c(=O)c1CCN1CCC(c3noc4cc(F)ccc34)CC1)CCCC2", "inhibition": "active: 86.3%"},
      {"smiles": "CCc1ccc(NC(=O)Cn2nnc(C(=O)NCc3ccc(C)cc3)c2N)cc1", "inhibition": "3.5%"},
      {"smiles": "CCOc1ccccc1C(=O)NC1CCN(Cc2ccccc2)CC1", "inhibition": "active: 89.2%"},
      {"smiles": "CCc1ccc2c(c1)NC(c1ccc(C)cc1)=NC(c1cccs1)=N2", "inhibition": "8.88%"},
      {"smiles": "CC(=O)Nc1ccc(NC(=O)c2ccc3c(c2)NC(=O)c2ccccc2S3)cc1", "inhibition": "5.95%"},
      {"smiles": "CCn1c(=O)sc2cc(NS(=O)(=O)c3ccc(C)cc3)ccc21", "inhibition": "-9.46%"},
      {"smiles": "CCOC(=O)N1CCc2c(sc3c2c(=O)n(Cc2ccccc2)c(=O)n3CC(=O)Nc2ccc(C)cc2C)C1", "inhibition": "-10.6%"},
      {"smiles": "O=C(Nc1nnc(S(=O)(=O)N2CCOCC2)s1)c1ccccc1F", "inhibition": "7.81%"},
      {"smiles": "Cc1ccc(NC(=O)C(C)Sc2nc(-c3ccccc3)c(C#N)c(=O)[nH]2)c(C)c1", "note": "(configuration not stated)", "inhibition": "5.22%"},
      {"smiles": "O=c1c(N2CCc3ccccc3C2)csc2ccc(Cl)cc12", "inhibition": "-23.7%"},
      {"smiles": "COc1ccc(Nc2c(-c3ccc(N4CCOCC4)cc3)nc3ncccn23)cc1OC", "inhibition": "-6.54%"},
      {"smiles": "CC(C)c1cnc2c(c1SCC(=O)N1CCCCC1)c(=O)n(C)c(=O)n2C", "inhibition": "-16.9%"},
      {"smiles": "CCOc1cc(CN2CCN(S(=O)(=O)c3ccc(C)cc3)CC2)ccc1OC", "inhibition": "0.306%"},
      {"smiles": "COc1ccc(/C=C/C(=O)Nc2sc(C)c(C)c2C(=O)O)cc1", "inhibition": "6.51%"},
      {"smiles": "CCc1ccc(NC(=O)CN2C(=O)CCSc3ccccc32)cc1", "inhibition": "-8.56%"},
      {"smiles": "O=C(NCCc1ccccc1)c1ccc(CS(=O)(=O)Cc2ccccc2Cl)o1", "inhibition": "3.32%"},
      {"smiles": "Cc1ccc(CNC(=O)C2CCCN(S(=O)(=O)c3cn(C)cn3)C2)cc1", "note": "(configuration not stated)", "inhibition": "-25.6%"},
      {"smiles": "Cc1cc(=O)n(CC(=O)NCc2ccc(OC(C)C)cc2)c2c1c(C)nn2-c1cccc(F)c1", "inhibition": "6.41%"},
      {"smiles": "Cc1cc(C)cc(NS(=O)(=O)c2ccc(N3CCCCS3(=O)=O)cc2)c1", "inhibition": "7.05%"},
      {"smiles": "Cc1ccc(S(=O)(=O)NCC(c2ccc3c(c2)OCO3)N2CCN(c3ccccc3)CC2)cc1", "note": "(configuration not stated)", "inhibition": "active: 67.4%"},
      {"smiles": "COc1ccc(CCNC(=O)c2c(C)oc3ncnc(N4CCOCC4)c23)c(OC)c1", "inhibition": "-17.6%"},
      {"smiles": "Cc1ccc(S(=O)(=O)Nc2cc3c(cc2C)n(C)c(=O)c(=O)n3C)c(C)c1", "inhibition": "5.59%"},
      {"smiles": "Cc1cc(C)cc(Nc2cc(C(=O)NC3CCC(C)CC3)c3ccccc3n2)c1", "note": "(configuration not stated)", "inhibition": "0.334%"},
      {"smiles": "CCCN1C(C(=O)c2ccccc2)=C(OC(=O)c2ccc(OC)cc2)c2ccccc2S1(=O)=O", "inhibition": "0.616%"},
      {"smiles": "CN(Cc1ccc(F)cc1)S(=O)(=O)c1nnc(NC(=O)c2ccccc2Cl)s1", "inhibition": "-1.48%"},
      {"smiles": "CCc1nc(-c2cc(S(=O)(=O)N3CCN(c4ccccc4F)CC3)ccc2OC)no1", "inhibition": "18.9%"},
      {"smiles": "O=C(Cn1c(=O)c(C(F)(F)F)nc2ccccc21)Nc1cccc(Br)c1", "inhibition": "-5.36%"},
      {"smiles": "CNc1ccc(-c2nc(-c3ccco3)no2)cc1[N+](=O)[O-]", "inhibition": "-23.1%"},
      {"smiles": "CCOC(=O)N1CCC(NC(=O)c2cnn(-c3ccc(F)cc3F)c2C2CCN(C(=O)OC(C)(C)C)CC2)CC1", "inhibition": "-0.978%"},
      {"smiles": "Cc1ccccc1NC(=O)c1ccc2c(O)c(S(=O)(=O)c3ccccc3)c(=O)[nH]c2c1", "inhibition": "-11.7%"},
      {"smiles": "COc1ccc(-c2nnc(NC(=O)c3ccc(F)cc3)o2)cc1", "inhibition": "active: 33.9%"},
      {"smiles": "NS(=O)(=O)c1ccc(CCNC(=O)Cn2c(-c3cccs3)cc3ccccc32)cc1", "inhibition": "-18.6%"},
      {"smiles": "Cc1cc2c(cc1C)NC(CC(=O)Nc1cccc(Cl)c1)C(=O)N2", "note": "(configuration not stated)", "inhibition": "-1.93%"},
      {"smiles": "C=CCc1cccc2cc(C(=O)NCCc3c(C)[nH]c4c(C)cccc34)c(=O)oc12", "inhibition": "-8.3%"},
      {"smiles": "CCN(CC)c1ccc(NC(=O)CCc2nc3cccnc3n2Cc2cccs2)c(C)c1", "inhibition": "-11.5%"}
    ]}
  ]
}
